The results in this text go back to article PMC6054188.

Protein sequences, listed by entry. Tags and fused reporters are not part of them.
UniProt Q96524: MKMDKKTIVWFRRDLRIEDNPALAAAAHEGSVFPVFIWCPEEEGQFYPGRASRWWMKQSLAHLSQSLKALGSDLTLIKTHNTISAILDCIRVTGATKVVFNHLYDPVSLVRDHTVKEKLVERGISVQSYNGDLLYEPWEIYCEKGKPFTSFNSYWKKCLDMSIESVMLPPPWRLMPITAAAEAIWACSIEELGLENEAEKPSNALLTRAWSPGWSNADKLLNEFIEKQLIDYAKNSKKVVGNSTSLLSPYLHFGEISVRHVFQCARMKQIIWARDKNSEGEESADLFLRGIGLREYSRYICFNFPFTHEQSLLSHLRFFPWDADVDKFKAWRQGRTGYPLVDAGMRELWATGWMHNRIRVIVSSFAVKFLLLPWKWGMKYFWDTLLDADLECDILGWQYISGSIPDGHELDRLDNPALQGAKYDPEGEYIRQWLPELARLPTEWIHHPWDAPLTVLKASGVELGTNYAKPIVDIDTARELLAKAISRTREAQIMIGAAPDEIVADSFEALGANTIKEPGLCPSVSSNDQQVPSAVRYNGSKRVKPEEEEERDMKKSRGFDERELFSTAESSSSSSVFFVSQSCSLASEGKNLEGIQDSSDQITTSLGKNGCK
UniProt P05804: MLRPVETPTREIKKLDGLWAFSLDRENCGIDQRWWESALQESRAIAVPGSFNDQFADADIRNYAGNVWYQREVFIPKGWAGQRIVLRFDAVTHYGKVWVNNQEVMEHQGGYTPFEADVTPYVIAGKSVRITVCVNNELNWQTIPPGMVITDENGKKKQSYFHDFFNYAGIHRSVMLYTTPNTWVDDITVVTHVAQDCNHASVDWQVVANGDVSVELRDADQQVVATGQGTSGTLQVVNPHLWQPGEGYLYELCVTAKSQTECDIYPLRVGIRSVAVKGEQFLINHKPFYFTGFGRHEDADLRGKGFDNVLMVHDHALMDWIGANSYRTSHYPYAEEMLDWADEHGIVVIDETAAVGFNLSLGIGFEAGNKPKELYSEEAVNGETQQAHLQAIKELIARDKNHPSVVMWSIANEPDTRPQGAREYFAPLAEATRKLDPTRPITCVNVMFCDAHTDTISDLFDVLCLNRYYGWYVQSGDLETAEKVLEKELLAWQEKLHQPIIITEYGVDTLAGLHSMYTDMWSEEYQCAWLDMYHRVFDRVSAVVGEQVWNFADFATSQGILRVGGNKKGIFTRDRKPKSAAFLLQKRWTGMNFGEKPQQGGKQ
UniProt Q43125: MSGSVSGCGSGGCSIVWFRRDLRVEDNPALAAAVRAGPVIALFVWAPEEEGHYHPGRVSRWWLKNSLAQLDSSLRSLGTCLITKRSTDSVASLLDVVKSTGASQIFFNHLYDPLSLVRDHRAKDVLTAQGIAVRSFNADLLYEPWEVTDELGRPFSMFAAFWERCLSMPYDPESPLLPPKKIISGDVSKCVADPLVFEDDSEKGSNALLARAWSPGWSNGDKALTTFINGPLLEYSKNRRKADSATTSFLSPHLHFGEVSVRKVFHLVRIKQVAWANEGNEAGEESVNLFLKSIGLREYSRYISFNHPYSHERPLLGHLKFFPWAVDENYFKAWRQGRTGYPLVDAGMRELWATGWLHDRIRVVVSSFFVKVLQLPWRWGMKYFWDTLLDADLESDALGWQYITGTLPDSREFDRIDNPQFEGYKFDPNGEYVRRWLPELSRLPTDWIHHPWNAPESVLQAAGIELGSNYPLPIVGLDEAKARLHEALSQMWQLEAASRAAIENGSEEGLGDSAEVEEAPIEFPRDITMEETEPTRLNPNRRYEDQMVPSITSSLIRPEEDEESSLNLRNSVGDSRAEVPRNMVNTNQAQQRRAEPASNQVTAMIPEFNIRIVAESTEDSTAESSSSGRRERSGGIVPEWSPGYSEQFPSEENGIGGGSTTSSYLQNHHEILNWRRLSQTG

No constants are given. Whether binding was seen depends on the method and setting. For some of these results: In cells and extracts the contact can be indirect. Some results given as binding are weak or reduced against the parent protein; the word gives no strength. Tags and fused reporters may be left off the sequences shown.

Assay [1] deals with T1, HBI1-Flag (Arabidopsis thaliana) (UniProt Q9ZPW3).
T1 sequence: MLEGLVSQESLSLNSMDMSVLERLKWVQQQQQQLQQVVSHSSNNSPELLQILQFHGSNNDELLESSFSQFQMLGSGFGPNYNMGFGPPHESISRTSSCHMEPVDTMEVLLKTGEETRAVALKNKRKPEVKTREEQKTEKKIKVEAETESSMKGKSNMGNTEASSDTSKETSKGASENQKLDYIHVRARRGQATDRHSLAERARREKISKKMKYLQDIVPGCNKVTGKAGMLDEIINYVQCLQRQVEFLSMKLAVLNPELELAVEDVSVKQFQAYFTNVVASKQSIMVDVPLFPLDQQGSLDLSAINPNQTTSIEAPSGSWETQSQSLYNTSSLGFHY
The experiment in a line: co-IP; tobacco leaves transiently co-expressing Flag-tagged and YFP-tagged proteins, kept in dim light 3 d; anti-Flag on protein G magnetic beads, TBST, 4 °C, elution with 3×Flag peptide; blots with anti-Flag and anti-GFP.

The target in assay [2] is T2, MBP–HBI1 (Arabidopsis thaliana) (UniProt Q9ZPW3).
T2 sequence: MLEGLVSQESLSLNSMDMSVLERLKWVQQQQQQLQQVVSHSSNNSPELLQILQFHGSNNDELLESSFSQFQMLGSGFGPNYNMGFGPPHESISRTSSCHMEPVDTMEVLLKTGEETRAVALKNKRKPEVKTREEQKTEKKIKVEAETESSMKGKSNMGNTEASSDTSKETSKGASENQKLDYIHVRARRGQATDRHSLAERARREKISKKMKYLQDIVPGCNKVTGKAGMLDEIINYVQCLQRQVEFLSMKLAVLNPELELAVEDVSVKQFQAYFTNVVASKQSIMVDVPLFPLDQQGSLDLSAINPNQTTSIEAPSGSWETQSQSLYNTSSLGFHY
The experiment in a line: pull-down; semi-in vivo; MBP–HBI1-conjugated beads with extracts of CRY1-OX seedlings kept in darkness 2 d and exposed to blue light (50 μmol m^-2 s^-1) for 3 h; TBST, 4 °C, 30 min; anti-Myc blot; only the target purified.

The target in assay [3] is T2, MBP–HBI1 (Arabidopsis thaliana). The experiment in a line: pull-down; semi-in vivo; MBP–HBI1-conjugated beads with extracts of CRY1-OX seedlings kept in darkness 2 d and exposed to red light (30 μmol m^-2 s^-1) for 3 h; TBST, 4 °C, 30 min; anti-Myc blot; only the target purified.
The target is the same in assay [4]. The experiment in a line: pull-down; semi-in vivo; MBP–HBI1-conjugated beads with extracts of CRY1-OX seedlings kept in darkness 2 d and exposed to far-red light (10 μmol m^-2 s^-1) for 3 h; TBST, 4 °C, 30 min; anti-Myc blot; only the target purified.
The target is the same in assay [5]. The experiment in a line: pull-down; semi-in vivo; MBP–HBI1-conjugated beads with extracts of CRY1-OX seedlings kept in continuing darkness; TBST, 4 °C, 30 min; anti-Myc blot; only the target purified.
Assay [6] deals with full-length CRY2 (cryptochrome 2) fused to the GAL4 DNA-binding domain (Arabidopsis thaliana) (UniProt Q96524). The experiment in a line: two-hybrid; GAL4 system, pGBKT7 bait and pGADT7 prey co-transformed into AH109; growth on selective media with 3AT (2, 5 or 10 mM by pair) in darkness for 3 d.
Assay [7] has the same target. As to the kind of experiment: two-hybrid; GAL4 system, pGBKT7 bait and pGADT7 prey co-transformed into AH109; growth on selective media with 3AT (5 or 10 mM by pair) in continuous 30 μmol m^-2 s^-1 blue light for 3 d.

Turning to “GUS–NLS–YFP (from UniProt P05804 1-603) (enzyme)”, in assay [1], the binding result is on record as “no binding”.

As to Myc-CRY1 (from UniProt Q43125 1-681), the binding result is “binds” in assay [2], “no binding (condition: seedlings exposed to red light)” in assay [3], “no binding (condition: seedlings exposed to far-red light)” in assay [4] and “no binding (condition: seedlings adapted in darkness)” in assay [5].

B1: full-length HBI1 (homolog of BEE2 interacting with IBH 1) fused to the GAL4 activation domain (protein, UniProt Q9ZPW3 1-337)
chain: MLEGLVSQESLSLNSMDMSVLERLKWVQQQQQQLQQVVSHSSNNSPELLQILQFHGSNNDELLESSFSQFQMLGSGFGPNYNMGFGPPHESISRTSSCHMEPVDTMEVLLKTGEETRAVALKNKRKPEVKTREEQKTEKKIKVEAETESSMKGKSNMGNTEASSDTSKETSKGASENQKLDYIHVRARRGQATDRHSLAERARREKISKKMKYLQDIVPGCNKVTGKAGMLDEIINYVQCLQRQVEFLSMKLAVLNPELELAVEDVSVKQFQAYFTNVVASKQSIMVDVPLFPLDQQGSLDLSAINPNQTTSIEAPSGSWETQSQSLYNTSSLGFHY
On to B1, for which the binding entry in assay [6] and in assay [7] was “binds” throughout.
